# From PubChem BioAssay AID1645882 (National Center for Advancing Translational Sciences (NCATS), 2021)
# About 120 (0.75%) of roughly 16,000 compounds were called active. About 4% were inconclusive and are not listed. The call rests on the fitted dose curve; in most records, active means well fitted inhibition curve with a large enough effect; inconclusive means small, poorly fitted or top-dose-only effect; inactive means no such curve, though single readings can be large or run the other way. The list shows a part of the results.
# Molecular target: Rap guanine nucleotide exchange factor 3 (Homo sapiens) (UniProt O95398)
# Sequence of UniProt O95398 (O95398 whole entry, looked up): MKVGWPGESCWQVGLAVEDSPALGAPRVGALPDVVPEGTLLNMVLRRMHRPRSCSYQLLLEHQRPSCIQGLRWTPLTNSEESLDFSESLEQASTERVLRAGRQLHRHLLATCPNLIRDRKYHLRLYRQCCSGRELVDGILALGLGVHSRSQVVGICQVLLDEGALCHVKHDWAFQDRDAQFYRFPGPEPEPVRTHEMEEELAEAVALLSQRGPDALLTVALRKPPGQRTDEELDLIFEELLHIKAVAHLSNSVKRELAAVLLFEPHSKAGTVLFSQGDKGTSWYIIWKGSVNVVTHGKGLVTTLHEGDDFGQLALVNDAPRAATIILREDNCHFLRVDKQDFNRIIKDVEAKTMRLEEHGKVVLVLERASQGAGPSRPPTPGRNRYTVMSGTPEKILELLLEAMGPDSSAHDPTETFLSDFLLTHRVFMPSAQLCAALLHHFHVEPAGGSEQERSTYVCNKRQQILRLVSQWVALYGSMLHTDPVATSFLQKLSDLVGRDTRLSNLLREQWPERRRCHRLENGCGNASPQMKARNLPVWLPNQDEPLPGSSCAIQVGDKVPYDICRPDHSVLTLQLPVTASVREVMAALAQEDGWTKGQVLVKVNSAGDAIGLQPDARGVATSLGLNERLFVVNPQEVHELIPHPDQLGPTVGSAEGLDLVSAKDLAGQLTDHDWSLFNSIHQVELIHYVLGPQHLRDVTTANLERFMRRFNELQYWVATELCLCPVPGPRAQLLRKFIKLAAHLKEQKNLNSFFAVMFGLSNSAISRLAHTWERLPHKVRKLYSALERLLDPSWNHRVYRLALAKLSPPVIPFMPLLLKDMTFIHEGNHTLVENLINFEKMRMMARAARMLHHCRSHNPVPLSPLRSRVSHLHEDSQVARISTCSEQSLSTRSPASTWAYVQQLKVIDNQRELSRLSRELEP
# Assay: Validation qHTS for antagonist of cAMP-regulated guanine nucleotide exchange factor 3 (EPAC1); further: nearly all actives have a fitted effect of over 75% in size;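 on activity change, negative = inhibition: plate controls were DMSO for no effect and ATA control for full effect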
# Conditions: EPAC1 Rap1B-BODIPY-GDP exchange, fluorescence; series mostly up to 150 µM; activity change, negative = inhibition: at the top concentration
# In short: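 Nucleotide exchange followed as fluorescence loss when BODIPY-GDP leaves Rap1B (480 nm excitation, 540 nm emission), read at 5 min intervals over 30 min. Reaction: 100 nM EPAC1, 250 nM RAP1B-BODIPY-GDP, 50 uM GDP; ATA and DMSO define normalization.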
# Potency means the concentration at half of the fitted maximal effect.
SMILES,"activity change, negative = inhibition",Potency
COc1cccc(-c2ccc3ncnc(NCc4cccnc4)c3c2)c1,inactive: -15.7%,–
OCC(O)COc1cccc2ccccc12 (stereo unspecified),inactive: 28.2%,–
FC(F)(F)c1cc(CN2CCC3(CCNCC3)CC2)cc(C(F)(F)F)c1,inactive: 1.97%,–
CN1CC(O)c2cc(N=NC(N)=O)c(O)cc21 (stereo unspecified),inactive: -10.2%,–
CSc1ncnc2c1ncn2C1OC(CO)C(O)C1O (stereo unspecified),inactive: 10.7%,–
COCC(=O)N1CCC[C@@]2(CCN(C(=O)Nc3cccc(C#N)c3)C2)C1,inactive: 19.2%,–
COCCn1c(=O)c(-c2ccc(Cl)cc2)nc2cnc(OCc3ccccc3)nc21,inactive: 21.4%,–
COc1ccc(/C=C/C(=O)Nc2ccccc2C(=O)O)cc1OC,inactive,–
CCN(CC)CCNC(=O)c1c(C)[nH]c(/C=C2\C(=O)Nc3ccc(F)cc32)c1C,inactive: -2.58%,–
COc1cccc(Cn2c(=O)cnc3cnc(Nc4cccc(OC)c4)nc32)c1,inactive: 0.979%,–
COC(=O)[C@@H]1[C@@H]2C[C@H]3c4[nH]c5ccccc5c4CCN3C[C@@H]2CC[C@@H]1O,inactive,–
CCN(Cc1ccncc1)Cc1ccc2c(c1)CN(C(=O)c1ccc(C#CC(C)(C)O)o1)CCO2,inactive: 16.2%,–
O=C(/C=C/c1ccc(O)cc1)c1cccs1,inactive: 8.61%,–
CC(=O)Oc1c(C)cc(OCC(O)CNC(C)C)c(C)c1C (stereo unspecified),inactive: 18.2%,–
CC(=O)N1CCC2(CC1)CN(Cc1ccccc1)C2,inactive: 14.5%,–
CCN(CC)CCCC(C)Nc1cc(/C=C/c2ccccc2Cl)nc2cc(Cl)ccc12 (stereo unspecified),inactive: 12.6%,–
CC(=O)c1ccc(F)c(-c2cc(C)cc3c2OC(CNC(=O)Cc2ccc4c(c2)OCO4)C3)c1 (stereo unspecified),inactive: -11.6%,–
CC(C)c1c(C(=O)N(C)CC2CCCN(C)C2)cnn1-c1nccc(-c2cccs2)n1 (stereo unspecified),inactive: -3.06%,–
Nc1ncnc2[nH]c(=O)[nH]c12,inactive: 11.4%,–
Cc1cccc(C)c1OCC(C)N (stereo unspecified),inactive,–
CCOC(=O)Nc1ccc2c(c1)N(C(=O)CN(C)C)c1ccccc1CC2,inactive: 0.972% [at 320 µM],–
CCOc1ccc2nc(N3CCCC3C(=O)N3CCC(c4nc5ccccc5o4)CC3)nc(C)c2c1 (stereo unspecified),inactive: -3.08%,–
CN(Cc1ccco1)c1nc(-c2ccc3c(c2)OCO3)nc2ccccc12,inactive: -8.59%,–
COc1ccccc1N1CCN(CCCCN2C(=O)c3ccccc3C2=O)CC1,inactive,–
Cc1cnc(CNc2cc(-c3ccc(C(=O)N(C)C)cc3)ncn2)cn1,inactive: 9.46%,–
Cn1cccc1C(=O)N1CCC2(CC1)CCN(c1cccc(-c3ccccc3)c1)CC2,inactive: 5.38%,–

SMILES,"activity change, negative = inhibition",Potency
COc1ncc2ncc(=O)n(Cc3ccc(F)cc3)c2n1,inactive: 14.1%,–
Clc1cccc(C=NC=Nc2cccc(Cl)c2)c1,inactive: -12%,–
COc1cc(C2c3cc4c(cc3C(O)[C@H]3COC(=O)C23)OCO4)cc(OC)c1OC (stereo partly specified),inactive,–
Cc1cc(=O)[nH]c(=S)[nH]1,inactive: 10.8%,–
COc1ccc(-c2nc3cc(C)ccc3cc2CN(C(=O)c2ccco2)C2CC2)cc1OC,inactive: 19%,–
COc1ccc(OC)c(/C=C/c2nc3ccccc3nc2C)c1,inactive: 6.16%,–
CCCCCCCCCC(=O)NO,inactive,–
COc1ncc2nc(CCc3ccccc3)c(=O)n(-c3ccccc3)c2n1,inactive: -10.7%,–
NC[C@@H]1O[C@H](O[C@H]2[C@@H](O)[C@H](O[C@@H]3[C@@H](O)[C@H](N)C[C@H](N)[C@H]3O[C@H]3O[C@H](CO)[C@@H](O)[C@H](O)[C@H]3N)O[C@@H]2CO)[C@H](N)[C@@H](O)[C@@H]1O,inactive: 9.75%,–
CN1C(=O)CC(CC(=O)N2CCCCC2CCO)(c2cccc(F)c2)C1=O (stereo unspecified),inactive: 10.2%,–
CC[C@]1(O)C[C@H]2CN(CCc3c([nH]c4ccccc34)[C@@](C(=O)OC)(c3cc4c(cc3OC)N(C=O)[C@H]3[C@@](O)(C(=O)OC)[C@H](OC(C)=O)[C@]5(CC)C=CCN6CC[C@]43[C@@H]65)C2)C1,inactive: 10.5%,–
CC1(COc2ccc(C[C@H]3SC(=O)NC3=O)cc2)CCCCC1,–,active: 89.1 µM
O=c1c(-c2ccc(Cl)cc2)nc2cnc(N3CCOCC3)nc2n1CCc1ccccc1,inactive: 11.1%,–
COc1cc(C)c2c(c1C=O)Oc1c(c(C)c(O)c3c1C(O)OC3=O)OC2=O (stereo unspecified),inactive: -12.9%,–
COc1ccccc1C1CN(CCNC(=O)c2ccccc2Cl)Cc2ccccc2O1 (stereo unspecified),inactive: 18.5%,–
N[C@H](Cc1cnc[nH]1)C(=O)O,inactive,–
CNc1ncncc1-c1ccccc1C(F)(F)F,inactive: 14.6%,–
COc1ccccc1OCC(O)CO (stereo unspecified),inactive,–
CCCCCc1ccc(-c2cn(Cc3ccc(C)cc3)nn2)cc1,inactive: 7.13%,–
CCNc1ncc2nc(-c3ccccc3)c(=O)n(Cc3cccs3)c2n1,inactive: 2.72%,–
C[C@@]12CCC(O)C[C@H]1CCc1ccccc12 (stereo partly specified),inactive: 7.7%,–
Cc1ccc2[nH]c3c(c2c1)CN(C(=O)CC1(c2ccccc2)CC(=O)N(Cc2cccnc2)C1=O)CC3 (stereo unspecified),inactive: 2.52%,–
COC(=O)C1C(O)CC[C@@H]2CN3CCc4c([nH]c5ccccc45)C3C[C@@H]12 (stereo partly specified),inactive,–
COc1cccc2c1C(=O)c1c(O)c3c(c(O)c1C2=O)C[C@@](O)(C(C)=O)C[C@@H]3O[C@H]1C[C@H](N)[C@H](O)[C@H](C)O1,inactive,–
CCN1CCN(C(=O)N[C@@H](C(=O)N[C@@H]2C(=O)N3[C@@H]2SC(C)(C)[C@H]3C(=O)O)c2ccccc2)C(=O)C1=O,inactive: -13%,–
